The supplement of paper PMC11417369
This is one part of the list.

Test system: PF3D7_0420300 AP2 domain 1 (GST-tagged)
Assay: gcPBM binding intensity (ln(normalized median fluorescence intensity)); higher = stronger DNA binding
Outline: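 Binding intensity is defined as the maximum Masliner-normalised natural-log median intensity across replicate spots for either probe orientation. It was measured on an Agilent 4 × 180k array of primer-extended double-stranded 36-bp intergenic genomic probes and negative controls, to which GST-tagged P. falciparum DNA-binding domains made in E. coli were applied for 1 h in 1× PBS with 1% milk, 0.2 mg/ml BSA, 0.5% salmon testes DNA and 0.03% Triton X-100. Detection was by Alexa488 anti-GST antibody and scanning at 488 nm.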

Compared with “GGATTTATTATATATACACACATACAGATATATATA [CACACA_site5222]”, “TAAAAAAATAAATATACACACATATATATATATATA [CACACA_site1089]” is lower in “gcPBM binding intensity (ln)” value: 9.53 for the first, 9.4 for the second.

First: TGTAGAAATGGGTGCACACACATATAAAATCTATAT [CACACA_site7224]
Second: TCATTAAAAACTAAAAGTACTCAATATTATGAACAT [XGTACX_site7807]
The “gcPBM binding intensity (ln)” value of the first is higher: 9.66 for the first, 9.23 for the second.

Compared with “CATATATATTTGTTCACACACACACTAGAAAAAAAA [CACACA_site5380]”, “ATAAAAAATAAAATAAATAAAAAATATTTACCCTTA [TGCATGCA_negctrl_site396]” is lower in “gcPBM binding intensity (ln)” value: 9.97 for the first, 9.04 for the second.

Going from “TCAAATAATAAGTATGCATGCTATATTTATATATAC [TGCATGCA_site920]” to “TACATTTTACTTGTTACACACATATAAAATTAACCA [CACACA_site2922]”, the “gcPBM binding intensity (ln)” value rises from 9.18 to 9.47.

Compared with “AAACGTACATAATACACACACATGTATACCTATAAA [CACACA_site7051]”, “AGTTAATGAATAGGCACACATATATCTGTATAAATA [CACACA_site4448]” is lower in “gcPBM binding intensity (ln)” value: 9.89 for the first, 9.47 for the second.

Going from “AGAAAAAAAAAAAGTACACACATATAATATATATAT [CACACA_site2973]” to “TTGTTCGATATATGCACACAGTTTTGTTATTTTTCC [CACACA_site4972]”, the “gcPBM binding intensity (ln)” value falls from 9.75 to 9.7.

First: ATGAATAAATAGGTCACACACAAATATATATAAATA [CACACA_site2416]
Second: CACTACACTGTTAATAGTACATATATTTAAAAAAAA [XGTACX_site7371]
The “gcPBM binding intensity (ln)” value of the first is higher: 9.91 for the first, 9.08 for the second.

First: AAAAAAAACGGACACACACACATAAATATATATAAA [CACACA_site4260]
Second: AAAAGGTATAGAAACACACACACGTGAATATAGTTT [CACACA_site1905]
The “gcPBM binding intensity (ln)” value of the first is higher: 10.3 for the first, 9.88 for the second.

First: CACACCCACCAACACACACACAAAAAAAAAAAGAAA [CACACA_site500]
Second: ATATTTTATTTTAATACACACAAGTTATATAATCAC [CACACA_site780]
The “gcPBM binding intensity (ln)” value of the first is higher: 9.59 for the first, 9.5 for the second.

Compared with “AAAAAAAAAAAAAGTGCACACATAAAAATATGATCT [CACACA_site8090]”, “TACAAATTTATATAAAGTACAAAAAATAATAAAAAT [XGTACX_site7355]” is lower in “gcPBM binding intensity (ln)” value: 9.55 for the first, 9.46 for the second.

First: ACATATGTTTTATGTAGTACTTATTTATTATTATAT [XGTACX_site7528]
Second: TACTTATTGTGATACTTATATTATTTTATGATTAAA [XGTACX_negctrl_site353]
The “gcPBM binding intensity (ln)” value of the first is higher: 9.51 for the first, 9.23 for the second.

First: TATATTTATTTATATACACACATAATAAAAAATATA [CACACA_site6527]
Second: TATTAATGATAAAAAAGTACATTATTATATGATATT [XGTACX_site4235]
The “gcPBM binding intensity (ln)” value of the first is higher: 9.4 for the first, 9.11 for the second.

Compared with “TTTTTTTTTTTTTTTTCACACATTGTACTTTTTTAT [CACACA_site5193]”, “TAAGTCATATAAATGTGTACATAAAAAAAAAAAATG [XGTACX_site1645]” is higher in “gcPBM binding intensity (ln)” value: 9.17 for the first, 9.32 for the second.

First: TCTATCAAATTTGAAGGTACACATTTGAGATAATTA [XGTACX_site3797]
Second: ATCATTTGCATACGCACACACACATAAAAAGAAAAA [CACACA_site355]
The “gcPBM binding intensity (ln)” value of the first is lower: 8.98 for the first, 9.75 for the second.

Going from ATTATACAAATTGAGGTGCATGAAACAAAATATGAA to “ATATTTTTTTTTTTATGTACTTATTTATAATTATTT [XGTACX_site5279]”, the “gcPBM binding intensity (ln)” value rises from 9.47 to 9.49.

Going from “AGCTTGTAACAGTTTACACACTAATATTTATAAATT [CACACA_site6024]” to CTTATAAGAATACTAGTGCACATAATTTAACGAAAA, the “gcPBM binding intensity (ln)” value falls from 9.46 to 9.28.

Going from “AATATGTGTATAGATAGTACACATGCTGATAATATA [XGTACX_site5941]” to “AAAATTTTGGAACGTGCACACATATGTAATATATAT [CACACA_site9004]”, the “gcPBM binding intensity (ln)” value rises from 9.42 to 9.66.

Going from “TTTTTAAAATATTTAACACACAATTATAATGCATAA [CACACA_site3932]” to “AGTAGTCTGGAGAAATGTACACAGTATCTGGTAGCT [XGTACX_site4871]”, the “gcPBM binding intensity (ln)” value rises from 9.14 to 9.28.

Compared with “AATAATAAATAAATGTGTACTTAAAAATATTATATT [XGTACX_site3005]”, “TTGTATCATATATTATGTACATATTGATTTATTACC [XGTACX_site12]” is lower in “gcPBM binding intensity (ln)” value: 9.35 for the first, 9.25 for the second.

First: CAAAGTATTATGATTACACACATGTGCTTTTTTCTT [CACACA_site163]
Second: ATGTCCTATATTAGTACACACATGAAAATATAAATA [CACACA_site7497]
The “gcPBM binding intensity (ln)” value of the first is higher: 9.65 for the first, 9.35 for the second.

Compared with “TTATTGTTATTTGTTTGTACATAATATAATATATTA [XGTACX_site6477]”, “ACAATTAATCAAACAAGTACAAAATATATCCCTATT [XGTACX_site6223]” is higher in “gcPBM binding intensity (ln)” value: 9.33 for the first, 9.66 for the second.

First: TCCTATGATGATGATAGTACATATGAGTTCAAAAAA [XGTACX_site273]
Second: AATATAAAAAAAAACAAAAAAAAAATTTTGGTTCAC [CACACA_negctrl_site1290]
The “gcPBM binding intensity (ln)” value of the first is lower: 8.9 for the first, 9.18 for the second.

Going from “AACCATACACAAATAAACATAGACACAGATACCTCC [CACACA_negctrl_site598]” to “AAAAAAAAAAAAAAAGGTACACAAAACGGTATTATT [XGTACX_site7064]”, the “gcPBM binding intensity (ln)” value falls from 9.81 to 9.6.

Going from “ATACATATTAATATGTGTACACATTTTTATTTTTTT [XGTACX_site930]” to “AACTCATAGGAGTGTGCACACAAAAAATTAAAAAAA [CACACA_site8996]”, the “gcPBM binding intensity (ln)” value rises from 9.35 to 9.64.

Compared with “TTTTTTTTTTTTGTCACACATATGGAATATATCTAT [CACACA_site5899]”, “CTCAAAAAATATGAACGTACAAAATAAGTAATGACA [XGTACX_site590]” is higher in “gcPBM binding intensity (ln)” value: 9.26 for the first, 9.51 for the second.

First: TTTTTTTTTTTTTTTGCACACATTTTAATTATTTTT [CACACA_site341]
Second: TTTTAAAAAAGAAAAAAAAAGGATCAGAGAAATATT [GTGCAC_negctrl_site79]
The “gcPBM binding intensity (ln)” value of the first is higher: 9.37 for the first, 9.31 for the second.

Going from “TTATATTTATTTAATGAACACACGATATATTATTTT [CACACA_site1601]” to “AAATGTTAATTAAATGCATGTACAAAAGGAGCGAAT [TGCATGCA_site942]”, the “gcPBM binding intensity (ln)” value rises from 9.19 to 10.1.

Compared with “AAAAAAATTAATAATGTGCACTTTTTAGTATTTTTA [GTGCAC_site9744]”, “TTGTAGATATTTATATGTACGAATTTATAAATATAG [XGTACX_site3611]” is lower in “gcPBM binding intensity (ln)” value: 9.03 for the first, 8.97 for the second.

With “TTTGTCAACCAAAATTGTACAAATGTATTCCCAATA [XGTACX_site1350]” the “gcPBM binding intensity (ln)” value was 9.01.
